Measurements: the supplement of paper PMC12217912
Some of the results follow. Sequences were assembled here from the parent chain. Inactive controls read about 0.05.

B1: TEV protease; numbered along this chain (parent)
chain: MGESLFKGPRDYNPISSSICHLTNESDGHTTSLYGIGFGPFIITNKHLFRRNNGTLVVQSLHGVFKVKDTTTLQQHLVDGRDMIIIRMPKDFPPFPQKLKFREPQREERICLVTTNFQTKSMSSMVSDTSCTFPSGDGIFWKHWIQTKDGQCGSPLVSTRDGFIVGIHSASNFTNTNNYFTSVPKNFMELLTNQEAQQWVSGWRLNADSVLWGGHKVFMVKPEEPFQPVKEATQL

Variants of: B1
Assay: raw area under fraction-flipped curve 0-4 h after induction (AUC4h, not background-subtracted), DNA-recorder readout of cleavage of the substrate (dimensionless); higher = more cleavage of the substrate by the protease variant
Settings: temperature: 34 °C; time window: 0-4 h after rhamnose induction
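Further: Bxb1 expression induced with 0.2% (w/v) L-rhamnose at OD600 near 0.5, cultures sampled hourly, flipped fraction per protease–substrate barcode pair counted by paired-end Illumina sequencing.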

Variant: MGESLFKGPRDYNPISSSICHLTNESDGHTTSLYGIGFGPFIITNKHLFRRNNGTLVVQSLHGVFKVKDTTTLQQHLVDGRGMIIIRMPKDFPPFPQKLKFREPQREERICLVTTNFQTKSMSSMVSDTSCTFPSGDGIFWKHWIQTKDGQCGSPLVSTRDGFIVGIHSASNFTNTNNYFTSVPKNFMELLTNQEAQQWVSGWRLNADSVLWGGHKVFMVKPEEPFQPVKEATQL [D82G]
- area with substrate ENLYFQH: 0.049
- area with substrate ENLYFQL: 0.0642
- area with substrate ENLYFQM: 0.0516
- area with substrate ENLYFQN: 0.0567
- area with substrate ENLYFQQ: 0.0568
- area with substrate ENLYFQS: 0.0581
- area with substrate ENLYFQV: 0.0682
- area with substrate ENLYFQW: 0.0571

Variant: MGESLYKGPRDYNPISSSICHLTNESDGHTTSLYGIGFGPFIITNKHLFRRNNGTLVVQSLHGVFKVKDTTTLQQHLVDGRDMIIIRMPKDFPPFPQKLKFREPQREERICLVTTNFQTKSMSSMVSDTSCTFPSGDGIFWKHWIQTKDGQCGSPLVSTRDGFIVGIHSASNFTNTNNYFTSVPKNFMELLTNQEAQQWVSGWRLNADSVLWGGHKVFMVKPEEPFQPVKEATQL [F6Y]
- area with substrate ENLYFQF: 0.0533
- area with substrate ENLYFQG: 0.0725
- area with substrate ENLYFQI: 0.0768
- area with substrate ENLYFQL: 0.0624
- area with substrate ENLYFQS: 0.0656
- area with substrate ENLYFQW: 0.0727

Variant: MGESLVKGPRDYNPISSSICHLTNESDGHTTSLYGIGFGPFIITNKHLFRRNNGTLVVQSLHGVFKVKDTTTLQQHLVDGRDMIIIRMPKDFPPFPQKLKFREPQREERICLVTTNFQTKSMSSMVSDTSCTFPSGDGIFWKHWIQTKDGQCGSPLVSTRDGFIVGIHSASNFTNTNNYFTSVPKNFMELLTNQEAQQWVSGWRLNADSVLWGGHKVFMVKPEEPFQPVKEATQL [F6V]
- area with substrate ENLYFQG: 0.174
- area with substrate ENLYFQI: 0.0791
- area with substrate ENLYFQK: 0.0496
- area with substrate ENLYFQL: 0.0719
- area with substrate ENLYFQS: 0.129

Variant: MGESLFKGPRDYNPISSSICHLTNESDGHTTSLYGIGFGPFIITNKHLFRRNNGTLVVQSLHGVFKVKDTTTLQQHLVDGRDMIIIRMPKDFPPFPQKLKFREPQREERICLVTTNFQTKSMSSMVSDTSCTFPSGDGIFWKHWIQTKDGQCGSPLVSTRDGFIVGIHSASNFTNTNNYFTSVPKNFMELLTNQEAQQWVSHWRLNADSVLWGGHKVFMVKPEEPFQPVKEATQL [G202H]
- area with substrate ENLYFQG: 0.0623
- area with substrate ENLYFQI: 0.0736
- area with substrate ENLYFQK: 0.0738
- area with substrate ENLYFQL: 0.062
- area with substrate ENLYFQM: 0.0667
- area with substrate ENLYFQN: 0.0689
- area with substrate ENLYFQQ: 0.0571
- area with substrate ENLYFQR: 0.0644
- area with substrate ENLYFQS: 0.0707
- area with substrate ENLYFQT: 0.0562
- area with substrate ENLYFQW: 0.0496
- area with substrate ENLYFQY: 0.061

Variant: MGESLFKGPRDYNPISSSICHLTNESDGHTTSLYGIGFGPFIITNKHLFRRNNGTLVVQSLHGVFKVKDTTTLQQHLVDGRDMIIIRMPKDFPPFPQKLKFREPEREERICLVTTNFQTKSMSSMVSDTSCTFPSGDGIFWKHWIQTKDGQCGSPLVSTRDGFIVGIHSASNFTNTNNYFTSVPKNFMELLTNQEAQQWVSGWRLNADSVLWGGHKVFMVKPEEPFQPVKEATQL [Q105E]
- area with substrate ENLYFQF: 0.0697
- area with substrate ENLYFQI: 0.0293
- area with substrate ENLYFQK: 0.0651
- area with substrate ENLYFQQ: 0.0722
- area with substrate ENLYFQR: 0.061
- area with substrate ENLYFQS: 0.106
- area with substrate ENLYFQT: 0.0623
- area with substrate ENLYFQY: 0.0984

Variant: MGESLFKGPRDYNPISSSICHLTNESDGHTTSLYGIGFGPFIITNKHLFRRNNGTLVVQSLHGVFKVKDTTTLQQHLVDGKDMIIIRMPKDFPPFPQKLKFREPQREERICLVTTNFQTKSMSSMVSDTSCTFPSGDGIFWKHWIQTKDGQCGSPLVSTRDGFIVGIHSASNFTNTNNYFTSVPKNFMELLTNQEAQQWVSGWRLNADSVLWGGHKVFMVKPEEPFQPVKEATQL [R81K]
- area with substrate ENLYFQH: 0.074
- area with substrate ENLYFQI: 0.045
- area with substrate ENLYFQK: 0.0365
- area with substrate ENLYFQL: 0.0563
- area with substrate ENLYFQP: 0.0595
- area with substrate ENLYFQR: 0.0608
- area with substrate ENLYFQS: 0.105
- area with substrate ENLYFQT: 0.0622
- area with substrate ENLYFQW: 0.0754
- area with substrate ENLYFQY: 0.0771

Variant: MGESLFKGPRDYNPISSSICHLTNESDGHTTSLYGIGFGPFIITNKHLFRRNNGTLVVQSLHGVFKVKDTTTLQQHLVDGFDMIIIRMPKDFPPFPQKLKFREPQREERICLVTTNFQTKSMSSMVSDTSCTFPSGDGIFWKHWIQTKDGQCGSPLVSTRDGFIVGIHSASNFTNTNNYFTSVPKNFMELLTNQEAQQWVSGWRLNADSVLWGGHKVFMVKPEEPFQPVKEATQL [R81F]
- area with substrate ENLYFQI: 0.06
- area with substrate ENLYFQK: 0.0676
- area with substrate ENLYFQL: 0.0572
- area with substrate ENLYFQM: 0.0707
- area with substrate ENLYFQN: 0.0751
- area with substrate ENLYFQP: 0.0504
- area with substrate ENLYFQR: 0.0574
- area with substrate ENLYFQS: 0.0862
- area with substrate ENLYFQT: 0.0527
- area with substrate ENLYFQV: 0.065
- area with substrate ENLYFQY: 0.0656

Variant: MGESLFKGPRDYNPISSSICHLTNESDGHTTSLYGIGFGPFIITNKHLFRRNNGTLVVQSLHGVFKVKNTTTLQQHLVDGRDMIIIRMPKDFPPFPQKLKFREPQREERICLVTTNFQTKSMSSMVSDTSCTFPSGDGIFWKHWIQTKDGQCGSPLVSTRDGFIVGIHSASNFTNTNNYFTSVPKNFMELLTNQEAQQWVSGWRLNADSVLWGGHKVFMVKPEEPFQPVKEATQL [D69N]
- area with substrate ENLYFQI: 0.0567
- area with substrate ENLYFQL: 0.0613
- area with substrate ENLYFQN: 0.0702
- area with substrate ENLYFQP: 0.0606
- area with substrate ENLYFQR: 0.0479
- area with substrate ENLYFQS: 0.0999
- area with substrate ENLYFQT: 0.0575
- area with substrate ENLYFQV: 0.0519
- area with substrate ENLYFQW: 0.073
- area with substrate ENLYFQY: 0.0469

Variant: MGESLFKGPRDYNPISSSICHLTNESDGHTTSLYGIGFGPFIITNKHLFRRNNGTLVVQSLHGVFKVKDTTTLQQHLVDGRDMIIIRMPKDFPPFPQKLKFREPQREERICLVTTNFMTKSMSSMVSDTSCTFPSGDGIFWKHWIQTKDGQCGSPLVSTRDGFIVGIHSASNFTNTNNYFTSVPKNFMELLTNQEAQQWVSGWRLNADSVLWGGHKVFMVKPEEPFQPVKEATQL [Q118M]
- area with substrate ENLYFQG: 0.071
- area with substrate ENLYFQH: 0.095
- area with substrate ENLYFQI: 0.0509
- area with substrate ENLYFQN: 0.0569
- area with substrate ENLYFQP: 0.0416
- area with substrate ENLYFQR: 0.0629
- area with substrate ENLYFQS: 0.118
- area with substrate ENLYFQT: 0.0668

Variant: MGESLFKGPRDYNPISSSICHLTNESDGHTTSLYGIGFGPFIITNKHLFRRNNGTLVVQSLHGVFKVKDTTTLQQHLVDGRDMIIIRMPKDFPPFPQKLKFREPQREERICLVTTNFQTKSMSSMVSDTSCTFPSGDNIFWKHWIQTKDGQCGSPLVSTRDGFIVGIHSASNFTNTNNYFTSVPKNFMELLTNQEAQQWVSGWRLNADSVLWGGHKVFMVKPEEPFQPVKEATQL [G138N]
- area with substrate ENLYFQG: 0.0957
- area with substrate ENLYFQK: 0.0542
- area with substrate ENLYFQR: 0.0357
- area with substrate ENLYFQS: 0.0983
- area with substrate ENLYFQT: 0.0594
- area with substrate ENLYFQV: 0.0649
- area with substrate ENLYFQW: 0.0887
